Results reported in PubChem BioAssay AID1347165 (National Center for Advancing Translational Sciences (NCATS), 2019).
“And” between values parts separate entries of the source, which are not always exact repeats. Identical values can stand only once. Screen size: about 220,000 compounds; about 5,700 (2.6%) were called active. The shares of active, inactive and inconclusive entries below differ from those in the screen. Calls come from the whole dose curve; as a rule, active = well fitted inhibition curve with a large enough effect; inconclusive = small, poorly fitted or top-dose-only effect; inactive = no such curve, though single readings can be large or run the other way. A potency beside an inconclusive call is a rough fit, not a confirmed value.

Target: Lysine-specific demethylase 5B (Homo sapiens) (UniProt Q9UGL1)
Sequence of UniProt Q9UGL1 (Q9UGL1 whole entry, looked up): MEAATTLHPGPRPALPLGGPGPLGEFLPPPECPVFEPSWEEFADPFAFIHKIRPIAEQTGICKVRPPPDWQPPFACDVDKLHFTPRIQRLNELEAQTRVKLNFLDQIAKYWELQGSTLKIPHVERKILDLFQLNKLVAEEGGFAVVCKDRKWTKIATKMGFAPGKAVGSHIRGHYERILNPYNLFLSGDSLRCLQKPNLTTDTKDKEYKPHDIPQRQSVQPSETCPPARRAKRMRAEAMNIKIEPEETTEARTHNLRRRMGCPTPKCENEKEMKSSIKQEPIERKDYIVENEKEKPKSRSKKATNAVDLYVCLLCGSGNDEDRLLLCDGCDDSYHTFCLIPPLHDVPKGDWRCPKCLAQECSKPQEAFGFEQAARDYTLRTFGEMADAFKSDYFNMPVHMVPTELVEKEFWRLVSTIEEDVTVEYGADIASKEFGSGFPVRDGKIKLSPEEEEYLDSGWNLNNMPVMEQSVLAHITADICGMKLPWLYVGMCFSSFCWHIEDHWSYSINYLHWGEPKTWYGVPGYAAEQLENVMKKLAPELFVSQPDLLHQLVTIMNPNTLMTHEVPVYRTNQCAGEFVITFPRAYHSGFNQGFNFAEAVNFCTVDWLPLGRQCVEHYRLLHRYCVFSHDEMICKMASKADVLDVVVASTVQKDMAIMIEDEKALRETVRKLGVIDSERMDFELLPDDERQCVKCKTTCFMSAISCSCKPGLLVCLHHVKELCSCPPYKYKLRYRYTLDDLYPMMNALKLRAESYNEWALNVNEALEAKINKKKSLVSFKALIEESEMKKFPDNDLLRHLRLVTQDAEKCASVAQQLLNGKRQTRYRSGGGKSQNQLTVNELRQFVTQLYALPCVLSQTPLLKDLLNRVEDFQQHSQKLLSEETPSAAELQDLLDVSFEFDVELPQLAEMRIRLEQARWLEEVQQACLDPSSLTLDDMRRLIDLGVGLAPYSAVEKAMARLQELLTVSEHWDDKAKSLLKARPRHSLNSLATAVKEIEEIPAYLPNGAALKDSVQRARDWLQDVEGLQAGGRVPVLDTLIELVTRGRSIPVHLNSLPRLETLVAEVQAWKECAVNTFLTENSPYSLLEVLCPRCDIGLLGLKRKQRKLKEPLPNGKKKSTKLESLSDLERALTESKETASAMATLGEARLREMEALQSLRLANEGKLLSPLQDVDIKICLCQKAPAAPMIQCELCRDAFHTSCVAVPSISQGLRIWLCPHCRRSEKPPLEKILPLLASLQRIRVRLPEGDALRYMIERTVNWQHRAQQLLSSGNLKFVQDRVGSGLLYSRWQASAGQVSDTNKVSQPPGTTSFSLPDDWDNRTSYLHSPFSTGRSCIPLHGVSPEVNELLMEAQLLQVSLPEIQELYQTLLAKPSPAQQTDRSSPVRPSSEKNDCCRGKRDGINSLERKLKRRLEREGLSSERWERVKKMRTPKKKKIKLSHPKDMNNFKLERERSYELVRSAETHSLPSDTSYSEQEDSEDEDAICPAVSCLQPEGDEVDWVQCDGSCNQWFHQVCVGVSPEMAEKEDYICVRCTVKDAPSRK
Experiment: Primary screen for KDM5B Histone Demethylases FDH-coupled qHTS; note: nearly all actives have a fitted effect of over 70% in size; for activity change, negative = inhibition: 0% is about no effect
Details: FDH-coupled NADH fluorescence (FDH is formaldehyde dehydrogenase); activity change, negative = inhibition: at 57.7 µM (top of the series) unless noted
Procedure, shortened: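 Here, H3K4me3 peptide (12.5 µM in substrate mix) is demethylated by KDM5BΔAP, 200 nM final, after 10 min compound exposure. Formaldehyde product is coupled through FDH (0.25 U/mL in mix) to NADH fluorescence; 30-min ΔRFU feeds dose-response curves.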
Potency is the fitted concentration of half-maximal effect; tags give direction and shape of the fitted curve.

Compound | Potency | activity change, negative = inhibition
NS(=O)(=O)c1ccc(CNC(=O)c2cc(-c3cccnc3)nc3ccc(Cl)cc23)cc1 | inconclusive: 28.2 µM [inhibitor, single point] | 
COc1cccc(N2CCN(c3nc(C(=O)NCc4cccnc4)cs3)CC2)c1 |  | inactive: 25.6%
Cc1nc(-c2ccsc2)sc1C(=O)Nc1ccc2[nH]c(=O)[nH]c2c1 |  | inactive: 18.2%
CN1CCC(N(C)C(=O)CCC[C@@H]2[C@H]3CCCN4CCC[C@@H](CN2C(=O)c2ccccc2)[C@@H]34)CC1 |  | inactive: -26.9%
CC(=O)Nc1ccc(NC(=O)c2c(C)oc3ccn(Cc4ccc(F)cc4)c(=O)c23)cc1 | active: 28.2 µM | 
Cc1ccc(N2C(=O)CS(=O)(=O)C23C(=O)Nc2ccccc23)cc1C (configuration not stated) |  | inactive: -7.29%
Cc1ccccc1Cn1ccn(-c2ccc(F)c(F)c2)c(=O)c1=O | inconclusive: 50.1 µM [inhibitor, single point] | 
CNC(=O)c1cc2cc(-c3c(C)noc3C)nc(-c3cccnc3OC)c2o1 | active: 35.5 µM | 
Cc1cc(=O)n(CC(=O)Nc2cccc(Cl)c2)c(N(C)Cc2ccccc2)n1 | inconclusive: 20 µM [inhibitor, partial curve] | 
O=C(NCC1(COc2cnccn2)C[C@@H](O)[C@@H](O)C1)c1nc2ccccc2[nH]1 (some centres not stated) | active: 28.2 µM | 
CCc1ccc(OC(=O)c2ccccc2I)cc1 |  | inactive: -13.2%
Cc1nn(-c2ccccc2)c(OC(=O)c2ccccc2)c1S(=O)(=O)c1ccccc1 | inconclusive: 35.5 µM [inhibitor, single point] | 
CCCCn1nnc(NCc2ccc(Cl)cc2)n1 |  | inactive: 8.29%
COc1ccc(OC)c2nc(-c3cccc(Cl)c3)c(CN3CCCC(O)C3)cc12 (configuration not stated) | inconclusive: 31.6 µM [inhibitor, single point] | 
Cc1ccc2[nH]c(=O)c(CN(C)C(=O)c3cccc(Cl)c3)cc2c1 | inconclusive: 28.2 µM [inhibitor, partial curve, poor fit] | 
COc1c(Cl)cc(C(=O)Nc2cc(-c3nc4ccccc4[nH]3)ccc2C)cc1Cl | inconclusive: 25.1 µM [inhibitor, single point] | 
C/C(=C\c1ccccc1)C1Nc2ccc3ccccc3c2C2=C1C(=O)CC(C)(C)C2 (configuration not stated) | inconclusive: 35.5 µM [inhibitor, partial curve, poor fit] | 
O=C(NC1CCCC1)c1cc2n(n1)CC(c1ccc3c(c1)OCO3)OC2 (configuration not stated) | inconclusive: 15.8 µM [inhibitor, partial curve] | 
COC(=O)c1cc(-c2ccc(OC)cc2OC)nc2ccccc12 | inconclusive: 22.4 µM [inhibitor, partial curve, poor fit] | 
O=C(Nc1cc(Cl)ccc1Cl)c1ccc2c(c1)N(Cc1cccc(Cl)c1)C(=O)c1ccccc1S2=O (configuration not stated) | inconclusive: 14.1 µM [inhibitor, partial curve, poor fit] | 
O=C(NCc1cccs1)c1ccc2c(c1)sc1nc(-c3ccc(F)cc3)cn12 | inconclusive: 4.47 µM [inhibitor, full curve, poor fit] | 
O=C(N[C@H]1CCN2C(=O)c3cc(-c4ccsc4)ccc3NC(=O)[C@H]12)c1cccc(F)c1 | inconclusive: 31.6 µM [inhibitor, partial curve, poor fit] | 
CC(Nc1ccc([N+](=O)[O-])cn1)c1ccc(Cl)c(Cl)c1 (configuration not stated) |  | inactive: -7.5%

Compound | Potency | activity change, negative = inhibition
CC1CCCN(C2CCN(Cc3ccc(Cl)cc3)CC2)C1 (configuration not stated) | inconclusive: 11.2 µM [inhibitor, partial curve, poor fit] | 
CC1=C(C(=O)Nc2ccccc2)C(c2ccc(C)cc2)n2ncc(C(=O)Nc3ccccc3)c2N1 (configuration not stated) |  | inactive: 33.3%
COc1ccc(N2CCN(C(=O)Nc3cn(CC(C)C)c(=O)c4ccccc34)CC2)cc1 | inconclusive: 28.2 µM [inhibitor, partial curve, poor fit] | 
Cc1ccc(C(=O)N(Cc2ccc(N(C)C)cc2)CC2CCCO2)cc1 (configuration not stated) | inconclusive: 25.1 µM [inhibitor, partial curve, poor fit] | 
Cc1nn(C(C)C(=O)NCc2ccc(OC(C)C)cc2)c(=O)c2c1sc1ccccc12 (configuration not stated) | inconclusive: 20 µM [inhibitor, partial curve, poor fit] | 
O=C(Nc1ccc(Cl)cc1Cl)c1cc2cccnn2n1 |  | inactive: -20.3% [at 86.2 µM]
CCOCc1ccccc1CNS(=O)(=O)c1cc(Cl)cc(Cl)c1 |  | inactive: -23.5%
COc1ccc(-c2[nH]nc3ncc(-c4ccc(F)cc4OC)nc23)c(C)c1 | active: 7.94 µM | 
Cc1ccc2nc(Cl)c(C3CC(c4ccco4)=NN3S(C)(=O)=O)cc2c1 (configuration not stated) | inconclusive: 28.2 µM [inhibitor, single point] and inconclusive: 39.8 µM [inhibitor, single point] | 
COc1ccccc1-c1cc(C(=O)N2CCN(c3ncccn3)CC2)nc2c1cnn2C |  | inactive: 8.62% [at 115 µM]
CN1CCc2c(sc(N)c2C(=O)c2ccc(Cl)cc2)C1 | inconclusive: 39.8 µM [inhibitor, partial curve, poor fit] | 
Cc1ccc(CC(=O)N2C[C@@H](CN3CCCCCC3)[C@@H](CO)C2)cc1 | inconclusive: 22.4 µM [inhibitor, partial curve, poor fit] | 
Cc1ccc(-n2ncc3c(NC4CCCC4)ncnc32)cc1Cl | inconclusive: 39.8 µM [inhibitor, single point] | 
CC(C)CN(C(=O)COC(=O)c1n[nH]c2ccccc12)C1CCS(=O)(=O)C1 (configuration not stated) |  | inactive: -29%
Nc1ccccc1C(=O)NCc1ccncc1 | inconclusive: 28.2 µM [inhibitor, partial curve, poor fit] | 
O=C(Cc1c[nH]c2ncc(-c3ccccc3)cc12)NCc1ccncc1 | active: 28.2 µM | 
O=C(N[C@H](Cc1ccncc1)C1CC(O)C1)c1cccn2cnnc12 (some centres not stated) | active: 22.4 µM | 
COc1ccc(Cl)cc1C(=O)NCc1nnc2ccc(-c3ccc(C)c(C)c3)nn12 | active: 31.6 µM | 
O=C(Cn1nc2c(cc1=O)CCCC2)NCc1ccc(Cl)cc1 |  | inconclusive: -41.7% [inhibitor]
Cc1ccc(NC(=O)CCN2CCN(Cc3ccccc3)CC2)cc1Br |  | inactive: -5.03%
COCCNC(=O)Cc1c[nH]c2ncc(-c3ccccc3C)cc12 | inconclusive: 31.6 µM [inhibitor, single point] | 
O=C(Cn1ncc2c3ccccc3n(Cc3ccccc3)c2c1=O)NCCc1ccc(Cl)cc1 | inconclusive: 7.08 µM [inhibitor, partial curve, poor fit] | 
Cc1oc(-c2nc(C#N)c(N(C)C)o2)cc1S(=O)(=O)N(Cc1ccccc1)C(C)C |  | inactive: -28.9%

Compound | Potency | activity change, negative = inhibition
O=C(c1cccnc1)N1CC2CC(C1)[C@H]1CCCC(=O)N1C2 (some centres not stated) | inconclusive: 35.5 µM [inhibitor, single point] | 
Cc1ccc(NC(=O)c2ccccc2Oc2ccccc2)cc1S(=O)(=O)N(C)C | inconclusive: 39.8 µM [inhibitor, single point] | 
Cc1ccc(C(=O)N2CCC(n3cc(-c4nc(C)no4)nn3)CC2)cc1 |  | inactive: -1.28%
CN1CCC(NC(=O)C2(C)CCCc3cnc(NCc4ccccc4)nc32)CC1 (configuration not stated) | active: 22.4 µM | 
COCCN(CCOC)S(=O)(=O)c1ccc(C(=O)Nc2sc3c(c2C(N)=O)CCCC3)cc1 | inconclusive: 17.8 µM [inhibitor, partial curve, poor fit] | 
CCCn1c(=N)c(C(=O)NCC2CCCO2)cc2c(=O)n3cc(C)ccc3nc21 (configuration not stated) | inconclusive: 3.16 µM [inhibitor, full curve, poor fit] | 
Cc1ccc(NC(=O)C2=C(c3ccccc3)NC(=S)NC2c2ccc(C(C)C)cc2)cc1 (configuration not stated) | inconclusive: 20 µM [inhibitor, partial curve, poor fit] | 
Cc1ccc(/C=N/n2c(-c3ccccn3)n[nH]c2=S)o1 | inconclusive: 39.8 µM [inhibitor, single point] | 
Cc1cc(Nc2cccc(C)c2C)c2ccc(C)c(C)c2n1 |  | inactive: -16%
CCOc1cccn2c(=O)c(-c3cc(C)n(-c4ccccc4C)n3)c(C)nc12 | inconclusive: 28.2 µM [inhibitor, partial curve, poor fit] | 
COc1ccc(-c2c(C)oc3cc(OCC(=O)Nc4ccccc4OC)ccc3c2=O)cc1 |  | inactive: 17.2%
O=C(Cc1coc2cc3c(cc12)CCC3)OCc1cccc([N+](=O)[O-])c1 |  | inactive: -33.6%
CCNC(=O)CN1CCN(c2ccnc3c(F)ccc(F)c23)CC1 |  | inactive: 8.87%
O=c1cc(N2CCOCC2)oc2c(-c3ccc(F)cc3)nccc12 | active: 35.5 µM | 
COc1ccc(CN2CCNc3cc(-c4ccnc(C)c4)ncc3C2)cc1O | inconclusive: 31.6 µM [inhibitor, single point] | 
Cc1cccc(-c2nc3c(cnn3-c3ccccc3)c(=O)n2-c2ccc(Cl)cc2)c1 | inconclusive: 39.8 µM [inhibitor, single point] | 
Cc1ccc(CCNC(=O)C2CCN(S(=O)(=O)c3ccc4c(ccn4C)c3)CC2)cc1 | inconclusive: 35.5 µM [inhibitor, single point] | 
O=C(Cc1cccc(Cl)c1)N1CCC2(CC1)CCN(Cc1cccs1)c1ccccc1O2 | inconclusive: 25.1 µM [inhibitor, partial curve, poor fit] | 
COCC1CN(C2CCC2)CC12CCN(C(=O)CC1CCCC1)CC2 (configuration not stated) | inconclusive: 17.8 µM [inhibitor, partial curve, poor fit] | 
N#Cc1c(-c2ccccc2)cc(-c2cccs2)nc1SCC(O)CS(=O)Cc1ccccc1 (configuration not stated) | inconclusive: 31.6 µM [inhibitor, partial curve, poor fit] | 
COCC1CN(C(C)=O)CC12CCN(Cc1cccn1C)CC2 (configuration not stated) | inconclusive: 20 µM [inhibitor, partial curve, poor fit] | 
